Source: paper PMC4336329 (PLoS ONE, 2015)
In all, about 310,000 compounds went through this assay and about 14,000 (4.5%) showed an effect of 50% or more. Effects have a minus sign here. The list shows a part of the results.

target: human ether-à-go-go-related gene (hERG) potassium channel (human, UniProt Q12809); test: primary screen, population patch clamp on CHO cells stably expressing hERG
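Further: peak tail current of the secondary pulse compared with the same well before compound.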

Chain of human ether-à-go-go-related gene (hERG) potassium channel (Q12809 whole entry, looked up): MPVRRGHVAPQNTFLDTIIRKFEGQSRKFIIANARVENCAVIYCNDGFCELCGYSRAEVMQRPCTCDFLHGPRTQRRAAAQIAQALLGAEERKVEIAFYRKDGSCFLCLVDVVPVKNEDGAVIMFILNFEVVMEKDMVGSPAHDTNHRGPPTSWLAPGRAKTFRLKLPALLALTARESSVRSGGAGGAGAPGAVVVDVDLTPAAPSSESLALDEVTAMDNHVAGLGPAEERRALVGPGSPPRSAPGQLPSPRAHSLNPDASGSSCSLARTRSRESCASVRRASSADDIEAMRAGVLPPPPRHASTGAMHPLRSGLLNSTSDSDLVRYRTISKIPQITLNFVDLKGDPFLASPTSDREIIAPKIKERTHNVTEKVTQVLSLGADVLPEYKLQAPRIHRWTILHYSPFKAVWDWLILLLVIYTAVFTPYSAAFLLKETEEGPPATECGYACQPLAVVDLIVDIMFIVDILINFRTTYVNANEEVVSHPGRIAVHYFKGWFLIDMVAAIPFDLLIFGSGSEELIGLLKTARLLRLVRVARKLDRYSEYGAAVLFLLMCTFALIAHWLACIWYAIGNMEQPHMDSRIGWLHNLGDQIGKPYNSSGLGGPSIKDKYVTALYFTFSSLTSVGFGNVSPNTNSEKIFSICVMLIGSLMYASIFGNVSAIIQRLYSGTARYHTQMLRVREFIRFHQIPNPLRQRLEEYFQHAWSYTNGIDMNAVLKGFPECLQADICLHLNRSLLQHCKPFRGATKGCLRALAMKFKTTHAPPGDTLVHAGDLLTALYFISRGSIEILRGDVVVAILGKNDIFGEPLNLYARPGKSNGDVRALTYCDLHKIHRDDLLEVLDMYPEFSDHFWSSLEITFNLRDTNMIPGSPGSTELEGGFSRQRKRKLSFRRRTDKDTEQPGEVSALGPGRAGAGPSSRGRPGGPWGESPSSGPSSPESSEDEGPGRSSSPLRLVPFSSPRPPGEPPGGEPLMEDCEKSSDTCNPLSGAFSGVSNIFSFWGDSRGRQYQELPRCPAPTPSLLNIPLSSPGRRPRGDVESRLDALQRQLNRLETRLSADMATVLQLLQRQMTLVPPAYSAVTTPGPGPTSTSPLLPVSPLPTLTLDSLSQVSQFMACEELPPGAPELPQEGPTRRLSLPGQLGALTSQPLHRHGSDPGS

Row | SMILES | hERG current change (%, negative = inhibition) at 10uM
1 | CC(C)CC(=O)Nc1c2c(nn1-c1cccc(Cl)c1)CS(=O)(=O)C2 | -40.8%
2 | Cc1ccc([N+](=O)[O-])cc1S(=O)(=O)Nc1ccc(OCC(=O)N2CCOCC2)cc1 | -33.4%
3 | CCN(CC)CCn1c2c(c(SCC(=O)Nc3ccc(C(C)C)cc3)nc1=O)CCC2 | -56.9%
4 | CC(C)[C@H](Nc1ccc(C(F)(F)F)cc1[N+](=O)[O-])C(=O)O.[Cl-] | 20%
5 | COc1cc(C(Nc2ccc(S(=O)(=O)N3CCC(C)CC3)cc2)C(=O)NCC2CCCO2)cc(OC)c1OC (stereo not shown) | -8.19%
6 | CCC1=[N+](C)CCn2c(C)ccc21.[I-] | 24%
7 | Cc1cnc(C)c(N2CCC(C(=O)NC(C)c3cccs3)CC2)n1 (stereo not shown) | -11.4%
8 | Cc1cc(CNCc2c(C(=O)N(C)Cc3ccccc3)nc3ccccn23)nn1C | 4.49%
9 | CCOc1cc(C(=S)N2CCCC2)ccc1OCc1ccccc1 | 7.93%
10 | COc1cc(-c2ccc3sc(-c4ccsc4)c(C#CCO)c3c2)cc(OC)c1OC | 16.5%
11 | COc1cc(C(=O)O)nc2ccc([N+](=O)[O-])cc12 | 1.67%
12 | Nc1ccc2nc(SCc3ccccc3F)sc2c1 | 0.868%
13 | O=C(Nc1nn[nH]n1)C12CC3CC(CC(C3)C1)C2 | 18.7%
14 | COc1ccccc1CC1/C(=N/O)C2CCN1CC2.Cl (stereo not shown) | 2.01%
15 | CCCCCC(=O)Nc1nnc(CCc2ccccc2)s1 | 3.33%
16 | O=C(O)CSc1ncnc2sc3c(c12)CCC3 | 16.3%
17 | COc1ccc(N2C(=O)CC(NCC#N)C2=O)cc1 (stereo not shown) | -7.33%
18 | O=c1[nH]c(=O)n(Cc2ccco2)c(O)c1C=NCCCn1ccnc1 | 16.3%
19 | CC(C)CC(NC(N)=O)C(=O)Nc1ccc(Oc2ccccc2)cc1 (stereo not shown) | 10.1%
20 | COCCCN1C(=O)C(=O)/C(=C(/O)c2ccc(OCC(C)C)cc2C)C1c1cccnc1 (stereo not shown) | -13.4%
21 | COc1ccc(CNc2nc(-c3ccccc3)nn2C(=O)c2cccs2)cc1 | -0.215%
22 | CC1(C)CC(=O)C(C(C2=C(O)CC(C)(C)CC2=O)c2ccco2)C(=O)C1 (stereo not shown) | 8.79%

Row | SMILES | hERG current change (%, negative = inhibition) at 10uM
23 | Cc1ccc(CNc2nc(N)c([N+](=O)[O-])c(NCc3ccccc3)n2)cc1 | 12%
24 | Cc1oc2nc(SCCCC(=O)NCCCO)nc(N)c2c1C | 9.44%
25 | CCc1nnc(NS(=O)(=O)c2ccc(NC(=O)CCC(=O)O)cc2)s1 | 20.8%
26 | Cc1ccc(S(=O)(=O)C2(C(=O)N3CCN(c4ccccc4F)CC3)CC2)cc1 | -2.52%
27 | CCC(C)[C@H](NC(=O)N1CC(=O)Nc2ccccc21)C(=O)N[C@@H](C(=O)O)c1ccccc1 (stereo partly shown) | 18%
28 | C[C@]12C=CC(=O)C=C1CC[C@H]1[C@@H]3C[C@@H](O)[C@](O)(C(=O)CO)[C@@]3(C)C[C@H](O)[C@@]12F | 6.23%
29 | Cc1ccc(NS(=O)(=O)c2cccc(C(=O)NCC(c3ccco3)N3CCCC3)c2)cc1 (stereo not shown) | -47.4%
30 | Oc1ccccc1N1CCN(C(=S)Nc2ccc(SC(F)F)cc2)CC1 | 14.9%
31 | Cc1ccc2c(c1)C(=O)N(CCCCO)C2=O | 20.1%
32 | Cn1c(N)c(Sc2ccc(F)cc2)c(=O)n(C)c1=O | 11.4%
33 | Cc1cc(NC(=O)CSc2nc(=O)cc(N)n2-c2ccc(Cl)cc2)no1 | 6.98%
34 | Cc1ccc2c(c1)[C@H]1OCC[C@H]1[C@@H](c1ccncc1)N2 | 10.2%
35 | NC(=O)c1ccc(-n2nnnc2SCC(=O)NC2CCCCC2)cc1 | 4.36%
36 | O=c1c2ccccc2ncn1-c1ccccc1[N+](=O)[O-] | 11.9%
37 | CCOc1ccc(NC(=O)C2CCN(S(=O)(=O)c3cccnc3)CC2)cc1 | -4.14%
38 | CC(=O)N1CCc2cc(S(=O)(=O)NC(C(=O)Nc3ccc4c(c3)OCCO4)C(C)C)ccc21 (stereo not shown) | 16.5%
39 | CCCCCN(C(=O)NC(=O)NC(C)CC)S(C)(=O)=O (stereo not shown) | 9.23%
40 | O=C(Nc1nc(-c2ccccn2)cs1)c1ncc(Cl)c(Cl)c1Cl | -6.08%
41 | CC(C)N(Cc1nc(-c2ccc(Cl)cc2)no1)Cc1nccn1C | -50.4%
42 | Cc1nn(C)cc1S(=O)(=O)NCc1ccc2c(c1)OCO2 | 12.5%
43 | COc1ccccc1NC(=O)Cn1c(=O)n2nc(C)nc2c2ccccc21 | 8.7%
44 | CS(=O)(=O)N(CC(=O)Nc1ccccc1C(=O)NCc1ccco1)c1ccc2c(c1)OCCO2 | -5.03%

Row | SMILES | hERG current change (%, negative = inhibition) at 10uM
45 | CN(C)CCCN(C(=O)COc1ccc(Cl)cc1)c1nc2ccc(F)cc2s1.Cl | -21.4%
46 | CCN(CC)C(=O)c1cc(-c2ccc3c(c2)OCO3)on1 | 10.8%
47 | Cc1csc(SCC(=O)NCc2cccs2)n1 | 3.97%
48 | Cc1cc(N2CCCN(C)CC2)nc2cc(Cl)ccc12 | -61.7%
49 | Brc1ccc(C2Nc3cccc4cccc(c34)N2)s1 | 7.9%
50 | CC1CC(C)CN(S(=O)(=O)CCNC(=O)c2ccccc2)C1 (stereo not shown) | -0.0469%
51 | Cc1ccc2c(c1)N(Cc1cccc(Cl)c1)C(=O)c1cccnc1O2 | -14.3%
52 | O=C(CSc1nc2ncc(Cl)cc2[nH]1)Nc1cccc(F)c1 | 12.8%
53 | CCOc1cc(C2CC(=O)N3CN(C4CCCCC4)CSC3=C2C#N)ccc1O (stereo not shown) | -14.4%
54 | O=C(Nc1ccc(N2CCOCC2)nc1)c1ccc(F)cc1 | -8.42%
55 | CCCCCCSc1cccc(-c2nc3ccc(Cl)cn3c2NCc2ccccc2)c1.O=C(O)C(F)(F)F | 8.84%
56 | N#C/C(=C\c1cccc([N+](=O)[O-])c1)c1ccccn1 | -16%
57 | Cc1ccc(OCC(=O)NC(C)c2ccccc2)cc1 (stereo not shown) | -1.19%
58 | O=S(=O)(c1ccc(C2CCCCC2)cc1)N1CCCC1 | 22.2%
59 | CCc1ccc(N2C(=O)C3C4C=CC(CC4)C3C2=O)cc1 (stereo not shown) | 14.6%
60 | Cc1ccc2c(c1)nnn2C1CCN(S(=O)(=O)c2ccc(C(=O)NC3CCCC3)cc2)CC1 | 15.9%
61 | COc1ccc(Cl)cc1N1C(=O)C2CCCN2C1c1cccc(F)c1 (stereo not shown) | -12.6%
62 | CCn1nnnc1SCC(=O)N1CCCc2ccccc21 | -3.75%
63 | NC(=O)NC(Cc1ccccc1)C(=O)N1CCN(S(=O)(=O)c2ccc(Cl)cc2)CC1 (stereo not shown) | -5.91%
64 | CCN(C(=O)Cc1ccc(NC2=NC3CS(=O)(=O)CC3S2)cc1)c1ccccc1 (stereo not shown) | -2.27%
65 | COc1ccc(NC(=O)c2ccccc2-c2ccccc2)c(C)c1 | -1.79%
66 | N/C(=N\OS(=O)(=O)c1cccc([N+](=O)[O-])c1)c1ccncc1 | 3.59%

Row | SMILES | hERG current change (%, negative = inhibition) at 10uM
67 | Fc1ccccc1CN1CCCCCCC1 | -25.9%
68 | O=C(c1ccc(Br)o1)N1CCc2ccccc21 | 0.669%
69 | CCC(=Nc1ccccc1)C1=C(O)CCCC1=O | 17.7%
70 | COC(=O)c1cc(Br)ccc1-c1ccc(/C=N/n2nnnc2N)o1 | -12.7%
71 | CCOc1ccc(OCC)c(NC(=O)CN2CCN(c3ccc(C)cc3C)CC2)c1.Cl | -0.937%
72 | O=C(NCC(c1ccco1)N1CCOCC1)c1cccc(Cl)c1 (stereo not shown) | 0.786%
73 | CCCc1cc(=O)oc2cc(O[C@@H]3O[C@H](CO)[C@@H](O)[C@H](O)[C@H]3O)ccc12 | 25.9%
74 | O=C1c2ccccc2C(=O)N1C(CO)C(O)c1ccc([N+](=O)[O-])cc1 (stereo not shown) | -5.29%
75 | CN(CC(=O)Nc1ccc(F)cc1)CC(=O)Nc1ccc(Cl)c(S(=O)(=O)N2CCOCC2)c1 | -49.1%
76 | O=C(CCC(=O)N(CC(=O)NC1CCCC1)Cc1ccccc1Cl)Nc1nccs1 | -16.1%
77 | CC(C)(C)C(=O)NN=C1CCC(c2ccccc2)CC1 (stereo not shown) | 6.84%
78 | Cc1ccc(NC(=O)CN(c2ccc3c(c2)OCO3)S(=O)(=O)c2c(C)n[nH]c2C)cc1 | 3.65%
79 | C/C(=N\NC(=S)Nc1c(C)cccc1C)c1ccc(OC(F)F)cc1 | 7.46%
80 | Cc1ccc(-n2nc(C)c3c2OC(N)=C(C#N)C3c2ccncc2)cc1 (stereo not shown) | 7.07%
81 | Oc1ccc(Br)cc1/C=N/N1CCN(Cc2cccc3ccccc23)CC1 | -0.519%
82 | CCSCc1nnc(SCC(=O)Nc2cccc(C(C)=O)c2)n1C | 11.9%
83 | CCCn1c(NC(=O)CCNC(=O)c2ccccc2Cl)nc2ccccc21 | -23.4%
84 | COC(=O)C1C(O)=C(C(C)=N)C(=O)CC1(C)C (stereo not shown) | 22.9%
85 | COCC(=O)N/N=C\c1ccccc1OC/C=C/c1ccccc1 | 4.57%
86 | O=C(Nc1ccc2c(c1)OCO2)c1ccc(CN2CCOCC2)cc1 | 10.1%
87 | Cc1ccc([N+](=O)[O-])c(OCCCN2CCCCCC2)c1.O=C(O)C(=O)O | -58.6%
88 | COc1cccc(/C=N/NC(=O)CCn2cnc3ccccc32)c1 | -0.349%
